Reference: publication PMC4336329 (PLoS ONE, 2015)
In all, about 310,000 compounds went through this assay and about 2,200 (0.71%) showed an effect of 50% or more. The effect is printed as a negative number. The list shows a part of the results.

Each compound was assayed against human ether-à-go-go-related gene (hERG) potassium channel (human, UniProt Q12809) (assay: primary screen, population patch clamp on CHO cells stably expressing hERG).
Sequence of human ether-à-go-go-related gene (hERG) potassium channel (Q12809 whole entry, looked up): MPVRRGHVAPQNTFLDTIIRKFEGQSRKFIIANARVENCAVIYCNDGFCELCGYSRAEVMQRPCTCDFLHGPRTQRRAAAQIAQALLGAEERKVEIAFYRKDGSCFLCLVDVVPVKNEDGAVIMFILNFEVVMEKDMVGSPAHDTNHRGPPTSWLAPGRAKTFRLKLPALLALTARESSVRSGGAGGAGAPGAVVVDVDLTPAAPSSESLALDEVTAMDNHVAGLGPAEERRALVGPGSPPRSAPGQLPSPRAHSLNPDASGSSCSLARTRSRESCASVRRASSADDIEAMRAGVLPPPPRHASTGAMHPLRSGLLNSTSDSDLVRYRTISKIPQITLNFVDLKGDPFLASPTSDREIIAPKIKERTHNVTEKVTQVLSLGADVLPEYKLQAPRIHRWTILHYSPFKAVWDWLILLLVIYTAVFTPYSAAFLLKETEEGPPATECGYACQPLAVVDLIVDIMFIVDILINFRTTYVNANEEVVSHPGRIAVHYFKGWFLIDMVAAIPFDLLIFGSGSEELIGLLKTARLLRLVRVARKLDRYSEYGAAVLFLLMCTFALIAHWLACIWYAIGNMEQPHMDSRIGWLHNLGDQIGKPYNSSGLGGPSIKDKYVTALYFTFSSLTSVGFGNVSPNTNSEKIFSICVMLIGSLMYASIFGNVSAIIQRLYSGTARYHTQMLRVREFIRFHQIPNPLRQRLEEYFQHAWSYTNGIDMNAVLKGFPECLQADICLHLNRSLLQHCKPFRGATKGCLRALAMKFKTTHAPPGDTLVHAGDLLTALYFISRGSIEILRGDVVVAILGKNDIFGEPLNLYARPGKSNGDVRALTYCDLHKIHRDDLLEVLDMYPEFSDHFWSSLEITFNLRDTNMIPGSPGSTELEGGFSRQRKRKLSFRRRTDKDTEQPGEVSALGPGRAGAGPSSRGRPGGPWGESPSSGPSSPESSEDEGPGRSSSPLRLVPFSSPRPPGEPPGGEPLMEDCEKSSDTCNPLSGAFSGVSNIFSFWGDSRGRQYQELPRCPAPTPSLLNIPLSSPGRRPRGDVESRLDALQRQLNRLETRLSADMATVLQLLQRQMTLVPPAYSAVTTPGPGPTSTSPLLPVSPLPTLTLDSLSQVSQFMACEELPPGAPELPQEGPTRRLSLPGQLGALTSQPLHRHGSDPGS

Compound	hERG current change (%, negative = inhibition) at 1uM
O=C(COc1cccnc1[N+](=O)[O-])Nc1ccc(Cl)c(S(=O)(=O)N2CCOCC2)c1	0.862%
CCc1ccc(N(CC(=O)NC2CC2)S(=O)(=O)c2ccc(C)cc2)cc1	-0.674%
Cc1ccccc1OCC(O)Cn1c(NCc2ccco2)nc2c1c(=O)[nH]c(=O)n2C (centres unmarked)	6.34%
Cc1c(C)n(O)c2ccc3nonc3c12	14%
Cc1ccccc1OCCCC(=O)Nc1nncs1	-10.7%
Cc1cc(C)n(-c2nc(NCCCO)c3c4c(sc3n2)CCCC4)n1	-4.37%
O=C(N/N=C/c1cccc(F)c1)c1ccc(Cl)cc1	8.4%
Cl.O=C(CN1CCC(C(=O)c2cccc(F)c2)CC1)NCc1cccs1	-10.3%
CCCCN1C(=O)C(=O)N(CC(=O)N2N=C3/C(=C/c4ccco4)CCCC3C2c2ccco2)C1=O (centres unmarked)	-11.4%
CCOC(=O)C1=C(C)N(C)C(=S)NC1c1c(OCC)ccc2ccccc12 (centres unmarked)	5.45%
C#CCn1c(=NC(=O)c2sc3ccccc3c2Cl)sc2cc(S(N)(=O)=O)ccc21	4.14%
COc1cccc(/C=N/NC(=O)CO/N=C(\C)c2cccs2)c1OC	3.29%
CCOc1cc(CNCc2ccc3c(c2)OCO3)ccc1OC.Cl	4.69%
COc1ccc(-c2noc(N3CCC(C(=O)NCCCN4CC(C)CC(C)C4)CC3)n2)cc1 (centres unmarked)	7.61%
CS(=O)(=O)N(CCc1ccccc1)CC(=O)NCc1ccccn1	12.9%
CCOC(=O)C1CCCN(Cc2ccc(-c3ccccc3)cc2)C1 (centres unmarked)	11.7%
CCOCCCNC(=O)c1cn(C)c2ccc(S(=O)(=O)N3CCCCC3)cc2c1=O	9.18%
Cc1cccc(NS(=O)(=O)c2cc(C(=O)N3CCc4ccccc4C3)ccc2Cl)c1C	0.0921%
Cc1c(NC(=S)NC(C)(C)C)c(=O)n(-c2ccccc2)n1C	-0.627%
CCN(CC)S(=O)(=O)c1ccc(N2CCCC2)c(NS(=O)(=O)c2cccs2)c1	3.62%
CC(=O)c1cccc(NC(=S)NC(=O)Cc2ccccc2)c1	9.53%
CCOC(=O)c1[nH]c(C)c(C(=O)N2CCN(C(=O)c3ccco3)CC2)c1C	14%
O=C(c1ccc(S(=O)(=O)N2CCOCC2)cc1)N(Cc1ccco1)Cc1cccs1	3.74%

Compound	hERG current change (%, negative = inhibition) at 1uM
Cc1cccn2c(=O)c3cc(C(=O)N4COCC4(C)C)n(Cc4ccccc4)c3nc12	8.93%
O=C(CSc1nc(O)cc(=O)n1C1CCCC1)Nc1cccc(Cl)c1Cl	8.35%
Cc1c(C(=O)C(=O)NCC2CCCO2)c2ccccc2n1C (centres unmarked)	9.67%
O=C(NCCc1ccccc1)c1cnc2ccccn2c1=O	8.72%
CCOC(=O)C1CCN(C(=O)c2ccc3c(c2)NC(=O)/C(=C\c2cccc(C)c2)S3)CC1	15.4%
COc1ccc(F)c(CN2CCC(N3CCC(C(=O)N4CCOCC4)CC3)CC2)c1	-9.52%
COc1ccc(S(=O)(=O)NCc2ccc3c(c2)OCO3)cc1OC	12.8%
O=C(Nc1nc(-c2ccncc2)cs1)c1ccco1	11.5%
COc1ccc(C(=O)NCC(=O)OCC(=O)NC(=O)c2ccc(C(C)(C)C)cc2)cc1OC	11.9%
COc1ccc(/C(N)=N/OC(=O)c2ccc(C)c([N+](=O)[O-])c2)cc1	0.038%
CCC(=O)N1CCc2cc(S(=O)(=O)NCCCOC)ccc21	15.3%
CC(=O)Nc1ccc(OCC(O)CN2C(C)(C)CC(O)CC2(C)C)cc1 (centres unmarked)	10.7%
O=C(NN1S(=O)(=O)c2ccccc2S1(=O)=O)c1ccc(Br)cc1	-13.4%
O=C(CCN1C(=O)/C(=C/c2ccccc2Cl)SC1=S)Nc1cccnc1	8.44%
COc1ccc(COC(=O)C2=C(C)NC(=O)NC2c2ccccc2OC(C)C)cc1 (centres unmarked)	13.4%
CN1CCCN(c2ccc([N+](=O)[O-])cc2)CC1	-21.2%
Cc1nn(CC(=O)NNC(=O)c2ccc(Br)cc2)c(C)c1[N+](=O)[O-]	-0.801%
CC1(C(=O)OCC(=O)N2c3ccccc3Sc3ccccc32)CC1(Cl)Cl (centres unmarked)	-2.87%
COc1ccc(OC)c(NC(=O)c2cccnc2Sc2ccccc2)c1	2.44%
O=C(CCc1ccccc1)NCc1cccnc1	-6.75%
COc1ccc(Cc2noc(CN3CCC(c4ccncc4)CC3)n2)cc1OC	-2.78%
N#Cc1cccc(NC(=O)COC(=O)c2cccc(N3C(=O)c4ccccc4C3=O)c2)c1	7.01%
Cc1ccc2c(c1)nnn2C1CCN(C(=O)c2cccs2)CC1	-22.1%

Compound	hERG current change (%, negative = inhibition) at 1uM
c1ccc(NCc2ccccn2)cc1	-5.15%
COc1ccc(CNC(=O)COc2cccnc2[N+](=O)[O-])cc1OC	13.1%
Cc1ccccc1C(=O)N1CCN(c2ccc(NC(=O)CSc3ccc(Cl)cc3)cc2)CC1	11.5%
CC(=O)c1ccc(NC(=O)C2CCC(C)NC2=O)cc1 (centres unmarked)	0.221%
O=C(CSC(=S)N1CCCCC1)Nc1ncc2c(n1)CC(c1ccco1)CC2=O (centres unmarked)	-0.867%
CCS(=O)(=O)c1ccc2oc(=O)c(/C=C(\O)c3ccc(Cl)cc3)nc2c1	11.8%
COc1ccccc1CNC(=O)N1CCN(c2ccccc2C)CC1	10.4%
Cn1c(CN2CCOCC2)nnc1SCC(=O)Nc1cc(Cl)ccc1Cl	3.99%
CCCn1nc(C(=O)OCC(=O)Nc2ncc(Cl)c(C)c2Cl)c2ccccc2c1=O	8.8%
CCOc1ccc2nc3ccc4[nH]onc4c3c2c1	10.6%
CCc1ccccc1NC(=O)CN(C)C(=O)CSc1nc2cc(Cl)ccc2s1	22.3%
Nn1c(SCC(=O)Nc2nnc(-c3ccccc3)o2)nnc1C1CC1	10.3%
Cl.N=c1ccn(Cc2ccc(Cl)cc2Cl)cc1	-1.41%
O=C(Nc1ccccc1N1CCOCC1)c1ccc([N+](=O)[O-])cc1	6.82%
CN(C)C1(CNC(=O)c2cccc(S(=O)(=O)NCc3ccccc3)c2)CCCCC1	-7.97%
COc1ccc(C(=O)/C=C/NCc2ccc(C)cc2)cc1	0.382%
Cc1cc(CNC(=O)CC2C(=O)NCCN2Cc2ccccc2C(F)(F)F)on1 (centres unmarked)	9.63%
FC(F)Oc1ccc(NC(=S)NCCc2ccccn2)cc1	5.3%
c1ccc(CCNC2=NCCCS2)cc1	5.59%
O=C(ON=C1CCN(c2ccc([N+](=O)[O-])cc2)CC1)c1ccccc1	-26%
O=C(Nc1cccc2ccccc12)N1CCN(Cc2ccc3c(c2)OCO3)CC1	-0.329%
Cc1ccc(S(=O)(=O)N=Nc2c(O)[nH]c3ccccc23)cc1	6.72%
Cc1ccc(/C=C2\SC(=O)N(CCNC(=O)C3CSC4(C)CCC(=O)N34)C2=O)cc1 (centres unmarked)	-22.9%

Compound	hERG current change (%, negative = inhibition) at 1uM
CCn1c(SCc2cc(=O)n3ccsc3n2)nc2ccccc21	3.71%
COc1ccc(C(=O)NCCCN2CCOCC2)cc1Br	9.03%
CC(C)Nc1ncnc2c1cnn2-c1ccccc1	4.33%
COC(=O)CCC(=O)Nc1cccc(C(=O)Nc2cccc(Cl)c2)c1	3.73%
CCONC(=NC)c1nonc1N	16.3%
COC(C(=O)NC1CC1)c1ccccc1 (centres unmarked)	18.5%
O=S(=O)(Nc1ccccc1Cl)c1ccc(F)cc1	-1.63%
CCCNC(=O)c1nc(C)n(-c2cc(Cl)cc(Cl)c2)n1	-0.0954%
O=C(CCS(=O)(=O)c1ccccc1)Nc1nc2ccc(F)cc2s1	-11.2%
O=C(C(=O)c1ccc(O)cc1)c1ccccc1	16.9%
COC(=O)c1ccc(S(=O)(=O)NNC(=O)c2ccc(S(=O)(=O)N3CCCCC3)cc2)cc1	3.54%
Cc1ccccc1OS(=O)(=O)c1cn(C)c(=O)n(C)c1=O	14.5%
CN(c1cccc(NC(=O)Cc2ccccc2)c1)S(C)(=O)=O	14.8%
O=C(Nc1ccc2c(c1)OCO2)c1ccccn1	12.3%
Cc1noc(C)c1C(=O)OCC(=O)Nc1cccc(S(=O)(=O)N(C)C)c1	5.39%
CCOC(=O)C(CSCC(=O)c1ccc(Br)cc1)NC(=O)OC(C)(C)C (centres unmarked)	4.58%
C=CCSc1ncc(-c2ccccc2)cn1	10.6%
COCCNC(=O)CCCn1c(=O)c2cc(OC)c(OC)cc2n(CC(=O)Nc2ccc(C)c(F)c2)c1=O	14.5%
CCOc1ccc(-n2c(SCc3ccc(C#N)cc3)nnc2-c2cccnc2)cc1	-65.1%
COc1ccc(NC(=O)N2CCCC(C(=O)NCc3ccccc3F)C2)cc1 (centres unmarked)	13.3%
